# Measured values as given in the supplement of paper PMC4166925.
# ± gives the standard deviation of the averaged measurements. Over roughly 33,000 sequences, “E-score (dimensionless, -0.5 to 0.5)” has its median near -0.049; the highest 2% begin near 0.37. This is one part of the list.
# Tested on: T1, PmTbr T-box DNA-binding domain (GST fusion)
# T1 sequence: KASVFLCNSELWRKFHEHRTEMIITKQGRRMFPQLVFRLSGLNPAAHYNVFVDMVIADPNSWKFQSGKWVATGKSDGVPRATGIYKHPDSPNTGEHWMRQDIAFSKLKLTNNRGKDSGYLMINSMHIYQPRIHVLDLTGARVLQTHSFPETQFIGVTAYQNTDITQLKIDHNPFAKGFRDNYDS
# Test: PBM E-score of 8-mer (E-score (dimensionless, -0.5 to 0.5)); Tbr is Tbrain of the sea star Patiria miniata (Pm) or the sea urchin Strongylocentrotus purpuratus (Sp); higher = stronger binding preference; most listed sequences are background and not binding sites
# Settings: the construct has about 5 more residues each side
# Summary of the method: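 Universal Agilent oligonucleotide arrays, made double-stranded by primer extension, were incubated with 200 nM GST-fused Tbr T-box DNA-binding domain in PBS (pH 7.5). The protein was expressed in BL21 E. coli at 20 °C and purified by glutathione affinity chromatography. After scanning and quantification, the Universal PBM Analysis Suite assigned an enrichment E-score to each ungapped 8-mer, averaged over duplicate arrays.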
row,Sequence,PBM E-score of 8-mer
1,GGACCATA,-0.146 ± 0.019
2,CAGTCTGC,-0.305 ± 0.032
3,AGGGACAC,-0.0342 ± 0.049
4,GGGGCTTA,-0.162 ± 0.03
5,ACTTCACG,0.262 ± 0.038
6,AAACACCG,0.143 ± 0.013
7,ACGATAGC,0.0723 ± 0.022
8,AGCGACGC,0.15 ± 0.044
9,ACTTTAGA,-0.0463 ± 0.044
10,ACGCATTC,0.0134 ± 0.0026
11,CACAGATA,-0.0278 ± 0.029
12,GGATCACC,-0.126 ± 0.049
13,CTTAATTC,-0.162 ± 0.036
14,GACAGCGA,0.05665 ± 0.00051
15,GGAATCCC,-0.151 ± 0.035
16,ACCTATTG,0.129 ± 0.034
17,GGTTATTA,-0.283 ± 0.018
18,ATCACCCA,0.276 ± 0.021
19,GTACGACA,-0.0297 ± 0.045
20,AGCACCCG,0.252 ± 0.061
21,GCGGCTCC,0.00186 ± 0.083
22,CGCTTAGC,0.149 ± 0.048

row,Sequence,PBM E-score of 8-mer
1,ACGAATAT,-0.0393 ± 0.022
2,CCGTGGCA,-0.0162 ± 0.08
3,AGCTCTAT,-0.131 ± 0.033
4,AGGTAAAC,0.0123 ± 0.059
5,CATATCCG,-0.0177 ± 0.053
6,GAATCCAC,-0.0603 ± 0.036
7,CGTGCAAG,0.127 ± 0.024
8,CAACGTGC,0.192 ± 0.017
9,ATATAGCG,0.0197 ± 0.053
10,CTCCGTCC,-0.281 ± 0.02
11,AGCACCAT,0.238 ± 0.028
12,GTGGAAAC,0.15 ± 0.04
13,CATAAACA,0.0515 ± 0.1
14,ACAGGTCT,0.0244 ± 0.081
15,GAGTACAC,-0.0545 ± 0.082
16,CTAGGTTA,-0.0985 ± 0.026
17,CGTTTAGC,0.208 ± 0.014
18,AAATTGAG,-0.0582 ± 0.059
19,ATTAGCGG,0.121 ± 0.025
20,ATAACCGC,0.0089 ± 0.0051
21,AACCCTTG,-0.194 ± 0.059
22,ATCAGGCG,0.0426 ± 0.037

row,Sequence,PBM E-score of 8-mer
1,AATGCACA,-0.13 ± 0.076
2,AGCTAATA,0.0204 ± 0.01
3,CATCGGAA,-0.167 ± 0.033
4,CGAATGCC,0.0826 ± 0.029
5,CCTCATCG,-0.118 ± 0.014
6,GAGGTAGA,-0.034 ± 0.0055
7,CTTTAGTC,-0.0181 ± 0.003
8,ATGCCGCG,0.0159 ± 0.13
9,CTAGACTA,-0.236 ± 0.027
10,GCCAGTAC,-0.137 ± 0.057
11,CTAGGGGC,0.0889 ± 0.0058
12,CTTAAACA,0.0549 ± 0.044
13,GACTGGAC,-0.0474 ± 0.025
14,ACTACTGG,-0.107 ± 0.0023
15,ATCGAGGG,-0.142 ± 0.015
16,CGCAACCC,-0.0836 ± 0.085
17,CTGTCAGC,0.17 ± 0.05
18,ACAAATCC,0.0775 ± 0.025
19,CCGTAAGC,-0.123 ± 0.0014
20,AACACGGG,0.0203 ± 0.024
21,GGGTCATA,-0.279 ± 0.015
22,GTGGTCGA,-0.0449 ± 0.057

row,Sequence,PBM E-score of 8-mer
1,CCTCGCCA,0.169 ± 0.0086
2,GGCGGCTA,-0.093 ± 0.056
3,AGATCCTA,-0.248 ± 0.053
4,AGACGCAC,-0.0781 ± 0.028
5,CCACGTGG,-0.0491 ± 0.034
6,ACCCACGC,0.2179 ± 0.00083
7,CACCTTGA,0.383 ± 0.017
8,TTCGAGAA,0.0634 ± 0.00088
9,CCACGTGC,0.149 ± 0.013
10,GACTGGCC,-0.0488 ± 0.02
11,GCATCAAA,-0.0837 ± 0.088
12,AAGACTAC,-0.179 ± 0.03
13,CCCACTAC,-0.0637 ± 0.17
14,ATAGACTA,-0.183 ± 0.017
15,ATCCAAGC,-0.099 ± 0.014
16,CATCTACA,-0.076 ± 0.082
17,AAGCAAGT,-0.0349 ± 0.02
18,CCGAGTCG,-0.0454 ± 0.094
19,TAACGGCA,-0.0208 ± 0.034
20,AACCTGCG,0.0979 ± 0.006
21,ACACTCAC,0.363 ± 0.0098
22,ACTCTTAA,-0.163 ± 0.033

row,Sequence,PBM E-score of 8-mer
1,ACTCATGC,-0.0449 ± 0.029
2,CAGCCAAA,0.00371 ± 0.033
3,CGCTTTCC,-0.124 ± 0.0079
4,AAGTGGTG,0.197 ± 0.0025
5,CAATATTC,-0.0464 ± 0.055
6,CTCATTTA,-0.0287 ± 0.11
7,CCAGGAAC,-0.0279 ± 0.023
8,ATGCGGGG,-0.246 ± 0.065
9,AGGTCCAA,0.0229 ± 0.062
10,CAGGATAA,-0.0262 ± 0.016
11,AACGGATT,-0.198 ± 0.078
12,GCAATGGC,0.0807 ± 0.034
13,TCAAGGCA,-0.256 ± 0.018
14,CCTCGGAG,-0.122 ± 0.028
15,AGCCAGAA,-0.236 ± 0.043
16,AACTGAAG,-0.0895 ± 0.042
17,AGACAGTC,-0.168 ± 0.052
18,ACTGGGCG,0.0105 ± 0.028
19,ACGGTGCA,0.0807 ± 0.013
20,CTCGGGAC,-0.18 ± 0.058
21,TACTGTGA,0.22 ± 0.011
